Data taken from ChEMBL document CHEMBL4888484, “Replenishing the malaria drug discovery pipeline: Screening and hit evaluation of the MMV Hit Generation Library 1 (HGL1) against asexual blood stage Plasmodium falciparum ,using a nano luciferase reporter read-out” (2022).
Screen size: about 150,000 compounds; about 540 (0.36%) showed an effect of 50% or more. The list shows a part of the results.

tested on: Plasmodium falciparum; test: Primary screen in NF54 nanoGlo assay, in single point, at 2uM, 72h; a lower Z score goes with more inhibition; type: functional, Erythrocyte; conditions: timepoint 72 hour

Compound	% Inhibition	Z score
CCn1nccc1C(=O)NCCc1noc(-c2cccnc2)n1	4%	-0.48
Cc1ccc(-c2nc(-c3ccc(-c4noc(C5CCC5)n4)cc3)cs2)s1	-23%	2.28
CN(C)C[C@H]1C[C@H](CO)CN(C(=O)c2ccccc2C(F)(F)F)C1	-2%	0.31
NC(=O)c1ccccc1NC(=O)CN1CCO[C@H]2COCC[C@H]21	1%	-0.18
CCc1ccc(C2CC(C)CCN2C(=O)Cn2cnnn2)o1 (stereo unspecified)	-11%	2.17
CCCCn1cc(C(=O)NCC(C)(C)c2ccccn2)c(C)n1	-6%	0.8
O=C(CN1CCN(S(=O)(=O)c2ccc(Br)cc2)CC1)Nc1ccc2c(c1)OCO2	10%	-1.19
CC(C)(C)OC(=O)c1cccc(CN)c1	7%	-0.85
CS(=O)(=O)N(CCCN1CCOCC1)[C@H]1CCN(C(=O)c2cc(Cl)ccc2F)C1	5%	-0.91
C[C@H](O)c1ccc(CCNS(=O)(=O)C2CC2)s1	6%	-0.89
Cn1cccc1C(=O)N1CC(C)(CC(F)F)C1	1%	-0.11
CN1CC[C@H](Cn2ccnc2-c2ccc(-c3ccccc3C#N)o2)C1	-22%	2.55
Cc1cccc2ncc(C(=O)N[C@H](c3cnn(C)c3)C(C)C)n12	-4%	0.56
Cc1cc(Cc2nc([C@H](C)n3cc(Br)cn3)no2)no1	-5%	0.6
Cn1cc(S(=O)(=O)NC[C@]2(O)CCCc3occc32)cn1	-8%	1.14
CCS(=O)(=O)NCCCNS(=O)(=O)c1ccc(C#N)cc1	-5%	0.41
Cc1ccc(C)c(Cn2ccnc2CN(Cc2ccco2)C(=O)c2ccc(Cl)cc2)c1	-7%	0.84
COCCn1cc(S(=O)(=O)Nc2cccnc2Nc2ccccc2)cn1	-18%	2.42
Cc1cccc(NC(=O)CN2N=C(c3nc(-c4ccncc4)no3)CCC2=O)c1	4%	-0.81
CC(C)NC(=O)[C@@H]1CCN(S(C)(=O)=O)c2ccccc2O1	-1%	0.17
COc1cccc(CN2CCNC(=O)[C@@H]2CC(=O)NCCOc2cccnc2)c1OC	-9%	1.13
CC(C)CNC(=O)N1CCCCC[C@H]1c1ccccc1Cl	-1%	0.23
COCCN(CCC(=O)NCc1ccccc1)c1nc(-c2ccco2)nc2cc(Cl)ccc12	-4%	0.44
COCCc1noc(C[C@H]2CCOC3(CCN(C(=O)C4CCC4)CC3)C2)n1	-8%	1.08
CCn1cc([C@@H]2CS(=O)(=O)CCN2Cc2cc(C)on2)cn1	-8%	1.36
CN(Cc1ccc2ccn(C)c2c1)C[C@H]1CCCCO1	-2%	0.4
O=C(C1CCCC1)N1CC(CN2CCCCC2)C(c2cccc(C(F)(F)F)c2)C1 (stereo unspecified)	-2%	0.41

Compound	% Inhibition	Z score
CC(NS(=O)(=O)CC1CCCCO1)c1nncn1C (stereo unspecified)	1%	-0.11
Cc1ccc(S(=O)(=O)N2CCN=C2N2CCCCC2)cc1C	-6%	0.75
O=C(C1CCCCCC1)N1CCC(n2cc(-c3ccsc3)nn2)CC1	-27%	2.45
O=C(c1cc(-c2ccccc2)c(N2CCCCCC2)s1)N1CCCCC1	-12%	1.49
COc1cccc([C@H]2CN(C(=O)c3c(-c4ccccc4)noc3C)C[C@@H]2N)c1	-6%	0.99
Cc1occc1C(=O)N1CCc2[nH]c(-c3cn[nH]c3)nc2C1	-1%	0.14
Cc1nn(-c2ccc(Cl)c(Cl)c2)c(NC(=O)N2CCC(CO)CC2)c1C	-2%	0.35
C[C@H](OC1CCCCCC1)C(=O)NC1(C#N)CCOCC1	-2%	0.24
COCCN(C)CC(=O)Nc1nccn1C	0%	-0.04
Cc1cc(OCC(=O)Nc2ccc(Cl)cc2)nc2c1c(-c1ccccc1)nn2-c1ccccc1	-2%	0.33
O=S(=O)(c1cc(Cl)c(Cl)s1)N1[C@H]2CCNC[C@@H]1CC2	-4%	0.68
O=C(N[C@@H](Cc1ccccc1)C(=O)N1CCC2(CC1)NCCc1[nH]cnc12)c1cccc(Br)c1	7%	-0.91
COc1cc2c(cc1OC)CN(C(=O)c1cccc3[nH]ccc13)CC2	-13%	1.64
CC(C)(C)[C@H](NCC(=O)NC1(C#N)CCCC1)c1cccs1	3%	-0.61
CN(Cc1ccoc1)C(=O)[C@@H]1[C@H]2[C@@H]3CC[C@@H](C3)[C@@H]12	-9%	0.87
O=C(NCc1cccc(Cl)c1Cl)N1C[C@H](O)[C@@H](N2CCCC2)C1	6%	-1.21
Nc1ncnc2c1ncn2CC(=O)NC1CCC2(CCCCC2)CC1	16%	-1.92
Cc1ccc(-c2ccc3c(c2)C=C(C(=O)Nc2ccc(F)cc2)CO3)cc1	-9%	0.95
CCOCCCC(=O)Nc1c[nH]nc1C(F)(F)F	-5%	0.54
COc1ccc(OC)c(S(=O)(=O)N2CC(N(C3CCOCC3)S(C)(=O)=O)C2)c1	-14%	2.57
C=CCn1cc(CN(C)CCc2cnn(C)c2)cn1	-21%	3.02
CCCN1CC[C@H](CNc2nnc(C3CC3)s2)C1	-12%	1.03
CC[C@@H](CC#N)NC(=O)c1c[nH]c2cc(Cl)c(OC)cc12	17%	-2.21
CC(C)CN1CC(=O)N[C@@H]1c1nc2ccc(F)cc2s1	4%	-0.61
C[C@@H](C(=O)N1CCOCC1)S(=O)(=O)c1cc(F)ccc1F	4%	-0.63
COc1ccc(C(=O)N[C@@H](Cc2ccccc2)c2ccccc2)cc1Oc1nc(Cc2ccc(F)cc2)ns1	-7%	0.77
